Experimental data published in US20030207290A1 (MESO SCALE TECHNOLOGIES, published 2003).
Entries with a single value are a further part of the results.

Biological target: IkBa phosphopeptide (IkBa-24pp), …(p)SGLD(p)SMKDEEYC
Assay: ECL 7-spot plate screen, peptide-BSA spot, biotinylated TnT protein, Ru-streptavidin; signal normalized in two steps

Sequence of IkBa phosphopeptide (IkBa-24pp), …(p)SGLD(p)SMKDEEYC (peptide, as listed by the source): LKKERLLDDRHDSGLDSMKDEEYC

B1: βTRCP2 (EST clone IMAGE 4237375), in vitro translated, biotin-labelled (other, human, UniProt Q9UKB1 1-542, looked up)
chain: MEPDSVIEDKTIELMCSVPRSLWLGCANLVESMCALSCLQSMPSVRCLQISNGTSSVIVSRKRPSEGNYQKEKDLCIKYFDQWSESDQVEFVEHLISRMCHYQHGHINSYLKPMLQRDFITALPEQGLDHIAENILSYLDARSLCAAELVCKEWQRVISEGMLWKKLIERMVRTDPLWKGLSERRGWDQYLFKNRPTDGPPNSFYRSLYPKIIQDIETIESNWRCGRHNLQRIQCRSENSKGVYCLQYDDEKIISGLRDNSIKIWDKTSLECLKVLTGHTGSVLCLQYDERVIVTGSSDSTVRVWDVNTGEVLNTLIHHNEAVLHLRFSNGLMVTCSKDRSIAVWDMASATDITLRRVLVGHRAAVNVVDFDDKYIVSASGDRTIKVWSTSTCEFVRTLNGHKRGIACLQYRDRLVVSGSSDNTIRLWDIECGACLRVLEGHEELVRCIRFDNKRIVSGAYDGKIKVWDLQAALDPRAPASTLCLRTLVEHSGRVFRLQFDEFQIISSSHDDTILIWDFLNVPPSAQNETRSPSRTYTYISR
modifications: biotin on some lysine residues (incorporated at random from biotin-Lys-tRNA)
notes: Product of a coupled transcription/translation reaction, used without purification; also called βTRCP [c]; bTRCP2
normalized ECL signal (clone grown in well format): 3
normalized ECL signal (control clone): 38
